According to the supplement of paper PMC4967469:
The IC50 comes from the fitted curve, where viability falls to half of the control; a limit (>, <) means that the fit lies beyond the doses tested. AUC, from the same fit, is the share of area under the viability curve across the 256-fold dose range; values near 1 show little effect. A top dose marked as inferred was calculated from the reported fits.

These cell lines were tested with O=C1NC(=O)/C(=C\c2ccc3nccnc3c2)S1 [AS605240] (assay: Viability of human cancer cell lines after 72 h of drug (GDSC screen)). Settings: top dose inferred.
Experimental: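 Human cancer cell lines in 384-well plates, medium with 10% serum, drug for 72 h over a 256-fold dose range (nine 2-fold or five 4-fold steps up to the top dose). Adherent lines were fixed and stained with the nucleic acid dye Syto60, suspension lines read with resazurin; signal relative to control wells, capped at 0 and 100%. One two-parameter sigmoid per drug and line, fitted in a mixed model over all curves with the slope shared within a line.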
For “LK-2 (lung squamous cell carcinoma, adherent, top dose 20 µM)”, the AUC was 0.936 and the IC50 was greater than 20 µM.
“EFO-21 (ovary, adherent, top dose 20 µM)” showed an AUC of 0.952 and an IC50 greater than 20 µM.
“C-4-I (cervix, adherent, top dose 20 µM)” was tested, and the AUC was 0.978 and the IC50 was greater than 20 µM.
Work on MCF7 (breast, adherent, top dose 20 µM) yielded an AUC of 0.961 and an IC50 greater than 20 µM.
For “NAMALWA (Burkitt lymphoma, suspension, top dose 20 µM)”, the AUC was 0.852 and the IC50 was 11.8 µM.
Cell Line “BV-173 (chronic myeloid leukaemia, suspension, top dose 20 µM)” has an AUC of 0.81 and an IC50 of 9.01 µM.
“BHT-101 (thyroid, adherent, top dose 20 µM)” was tested, and the AUC was 0.826 and the IC50 was 12.7 µM.
“COLO-680N (oesophagus, adherent, top dose 20 µM)” gave an AUC of 0.888 and an IC50 greater than 20 µM.
“SK-N-AS (neuroblastoma, adherent, top dose 20 µM)” was tested, and the AUC was 0.218 and the IC50 was 0.161 µM.
With ACHN (kidney, adherent, top dose 20 µM) the AUC was 0.869 and the IC50 was greater than 20 µM.
“NCI-H1793 (lung adenocarcinoma, adherent, top dose 20 µM)” gave an AUC of 0.941 and an IC50 greater than 20 µM.
“BE-13 (lymphoblastic leukaemia, suspension, top dose 20 µM)” gave an AUC of 0.869 and an IC50 of 16.4 µM.
“SK-OV-3 (ovary, adherent, top dose 20 µM)” showed an AUC of 0.861 and an IC50 greater than 20 µM.
“Caov-4 (ovary, adherent, top dose 20 µM)” showed an AUC of 0.554 and an IC50 of 1.88 µM.
Cell Line “CAL-72 (osteosarcoma, adherent, top dose 20 µM)” has an AUC of 0.984 and an IC50 greater than 20 µM.
Work on “CMK (acute myeloid leukaemia, suspension, top dose 20 µM)” yielded an AUC of 0.786 and an IC50 of 7.25 µM.
“D-263MG (glioma, adherent, top dose 20 µM)” was tested, and the AUC was 0.913 and the IC50 was greater than 20 µM.
In the case of “MMAC-SF (melanoma, adherent, top dose 20 µM)”, the AUC is reported as 0.651 and the IC50 is reported as 3.35 µM.
“SK-LMS-1 (soft tissue, adherent, top dose 20 µM)” gave an AUC of 0.687 and an IC50 of 4.06 µM.
Work on “BB49-HNC (head and neck, adherent, top dose 20 µM)” yielded an AUC of 0.974 and an IC50 greater than 20 µM.
In the case of “D-566MG (glioma, adherent, top dose 20 µM)”, the AUC is reported as 0.711 and the IC50 is reported as 4.9 µM.
In the case of “COR-L303 (small cell lung carcinoma, suspension, top dose 20 µM)”, the AUC is reported as 0.814 and the IC50 is reported as 10.4 µM.
Work on “RERF-LC-MS (lung adenocarcinoma, adherent, top dose 20 µM)” yielded an AUC of 0.849 and an IC50 of 15.6 µM.
Cell Line “IST-MEL1 (melanoma, adherent, top dose 20 µM)” has an AUC of 0.841 and an IC50 of 18 µM.
For “DK-MG (glioma, adherent, top dose 20 µM)”, the AUC was 0.838 and the IC50 was greater than 20 µM.
“EW-16 (Ewing sarcoma, adherent, top dose 20 µM)” was tested, and the AUC was 0.873 and the IC50 was greater than 20 µM.
With TT (thyroid, adherent, top dose 20 µM) the AUC was 0.973 and the IC50 was greater than 20 µM.
With “LOUCY (T-cell lymphoblastic leukaemia, suspension, top dose 20 µM)” the AUC was 0.412 and the IC50 was 0.752 µM.
With “451Lu (melanoma, adherent, top dose 20 µM)” the AUC was 0.481 and the IC50 was 1.12 µM.
For “TE-4 (oesophagus, adherent, top dose 20 µM)”, the AUC was 0.954 and the IC50 was greater than 20 µM.
Work on “HA7-RCC (kidney, adherent, top dose 20 µM)” yielded an AUC of 0.909 and an IC50 greater than 20 µM.
In the case of “KYSE-140 (oesophagus, adherent, top dose 20 µM)”, the AUC is reported as 0.94 and the IC50 is reported as greater than 20 µM.
Work on “SNU-475 (liver, adherent, top dose 20 µM)” yielded an AUC of 0.956 and an IC50 greater than 20 µM.
For “RCC-MF (kidney, adherent, top dose 20 µM)”, the AUC was 0.726 and the IC50 was 6.74 µM.
